Results published in PubChem BioAssay AID2451 (National Center for Advancing Translational Sciences (NCATS), 2010).
“And” between values parts separate entries of the source, which are not always exact repeats. Equal entries are not always repeated. Hit rate of the full screen: of about 290,000 compounds, about 2,100 (0.72%) were called active. The shares of active, inactive and inconclusive entries below differ from those in the screen. The call rests on the fitted dose curve; in most records, active means well fitted inhibition curve with a large enough effect; inconclusive means small, poorly fitted or top-dose-only effect, or effect the other way; inactive means flat fitted curve, though single readings scatter. Where the call is inconclusive, the potency comes from a doubtful curve fit.

target: Fructose-bisphosphate aldolase (Giardia intestinalis (strain ATCC 50803 / WB clone C6)) (UniProt A8B2U2); assay: qHTS Assay for Inhibitors of Fructose-1,6-bisphosphate Aldolase from Giardia Lamblia; conditions: purified Giardia FBPA; activity, negative = inhibition: at 59.6 µM (top of the series) unless noted; further: nearly all actives have a fitted effect of over 55% in size
Method in brief: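 40 nM FBPA preincubated 10 min at RT with compound (up to 57.5 uM final), then substrate plus GAPDH/TPI/NAD/arsenate coupling and diaphorase/resazurin added. Fluorescence read after 20 min at RT, 525/598 nm.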
On the % scale 0 is the no-effect control and ±100 the full control effect; potency means the concentration at half of the fitted maximal effect; tags describe the fitted curve by direction and shape.

Chain of UniProt A8B2U2 (A8B2U2 whole entry, looked up): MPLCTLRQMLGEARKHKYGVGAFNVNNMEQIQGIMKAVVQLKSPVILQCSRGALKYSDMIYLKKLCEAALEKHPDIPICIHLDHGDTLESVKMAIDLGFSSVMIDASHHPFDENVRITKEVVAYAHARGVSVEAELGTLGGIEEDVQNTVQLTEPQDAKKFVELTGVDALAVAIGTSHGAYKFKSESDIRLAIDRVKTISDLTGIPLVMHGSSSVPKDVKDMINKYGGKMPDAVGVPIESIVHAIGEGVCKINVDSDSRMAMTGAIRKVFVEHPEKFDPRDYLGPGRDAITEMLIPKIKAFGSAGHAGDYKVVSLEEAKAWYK

| Compound | Potency | activity, negative = inhibition |
| --- | --- | --- |
| COc1ccccc1N1CC(O)=C(c2nc3ccccc3s2)C1=N | inconclusive: 5.61 µM [inhibitor, partial curve] |  |
| CC1(C)Cc2ccccc2C(/C(C#N)=N/O)=N1 | inconclusive: 2.81 µM [inhibitor, full curve, poor fit] |  |
| C/C=C/c1ccc(OCC(O)CN(C)Cc2ccc(SC)cc2)c(OC)c1 (stereo unspecified) | inconclusive: 14.1 µM [inhibitor, partial curve] |  |
| CCCCC[n+]1ccn(C2=C([O-])c3ccccc3C(=O)/C2=N\S(=O)(=O)c2ccc(Cl)cc2)c1 | inconclusive: 0.5 µM [inhibitor, full curve] |  |
| CC(C)(C)c1ccc(C(=O)c2c[nH]c(C(=O)NCCc3ccccn3)c2)cc1 |  | inactive: 5.14% |
| O=C1N=c2ccccc2=C1c1sc(=S)n(NC(=O)c2cccc(O)c2)c1O | inconclusive: 19.9 µM [inhibitor, partial curve] |  |
| COc1ccc(C(=O)CSc2n[nH]c(-c3ccco3)n2)cc1 | inconclusive: 17.7 µM [inhibitor, partial curve] |  |
| CC(=O)Oc1cccc(N2C(=O)CC(Nc3ccc(N4CCOCC4)cc3)C2=O)c1 (stereo unspecified) | inconclusive: 17.7 µM [inhibitor, single point] |  |
| Cc1ccc(CS(=O)(=O)CCC(=O)NCCCN2CCCC2)cc1 | inconclusive: 35.4 µM [inhibitor, partial curve] |  |
| CCS(=O)(=O)N1CCC(C(=O)NCCCN2CCCCCC2)CC1 | inconclusive: 28.2 µM [inhibitor, single point] |  |
| COc1ccc(NC(=O)CCN2CCN(c3ccc(F)cc3)CC2)cc1 |  | inactive: -5.08% |
| O=C(CN1CCOCC1)Nc1nc2ccc(F)cc2s1 |  | inactive: -10.1% |
| CN1CCN2c3ccccc3Cc3ccccc3[C@@H]2C1 | inconclusive: 14.1 µM [inhibitor, partial curve] |  |
| Cn1nc([N+](=O)[O-])nc1Sc1nnnn1-c1ccc(C(=O)O)cc1 | inconclusive: 19.9 µM [inhibitor, partial curve] |  |
| CSc1ncc(C(=O)Nc2ccc(Cl)cc2)c(C)n1 |  | inactive: 1.06% |
| CC(=O)c1ccc(N(CC(=O)NCc2ccc3c(c2)OCO3)C(=O)c2csnn2)cc1 | inconclusive: 15.8 µM [inhibitor, partial curve] |  |
| COc1cc2c(cc1O)CC1c3c(cc(O)c(OC)c3-2)CCN1C (stereo unspecified) | inconclusive: 6.29 µM [inhibitor, partial curve] and inconclusive: 15.8 µM [inhibitor, partial curve] |  |
| CC(C)C[C@@H](CC(=O)N[C@H](CC(=O)N[C@@H]1CCNC[C@H]1C(=O)N[C@H](CC(=O)N[C@@H](CCC(=O)O)CC(=O)O)Cc1c[nH]c2ccccc12)C(C)C)NC(=O)[C@@H]1CNCC[C@H]1N | inconclusive: 15.8 µM [inhibitor, single point] |  |
| COCCn1c(SCC(=O)Nc2ccc(Cl)c(S(=O)(=O)N(C)C)c2)nc2ccccc21 |  | inactive: 0.223% |
| O=C(CN1CCCCC1)Nc1cccc(Oc2ccccc2)c1 |  | inactive: 0.213% |
| Cc1ccc(NC(=O)c2cccc(OCc3c(C)noc3C)c2)cc1S(=O)(=O)Nc1ccccc1Cl |  | inactive: 1.62% |
| O=C(CSc1n[nH]c(-c2ccccc2)n1)c1ccc(O)c(O)c1 | active: 8.91 µM |  |
| O=S(=O)(c1cccs1)N1CN(Cc2ccco2)c2nc3ccccc3nc21 | inconclusive: 19.9 µM [inhibitor, partial curve] |  |
| C=CCc1c(C)nc(C)nc1N/N=C/c1ccc([N+](=O)[O-])cc1 | inconclusive: 15.8 µM [inhibitor, partial curve] |  |

| Compound | Potency | activity, negative = inhibition |
| --- | --- | --- |
| O=C(NCCc1ccccc1)c1cc2ncc(Br)cn2n1 | inconclusive: 17.7 µM [inhibitor, single point] |  |
| COc1cc2c3c(c1)/C(=C1/SC(NC(C)=O)=NC1=O)C(=O)N3C(C)(C)C=C2C |  | inactive: -11.4% |
| OC1(Cc2ccccc2)CCNCC1 | inactive |  |
| CCCCCc1ccc(CC(=O)Nn2c(C)nc3ccccc3c2=O)cc1 |  | inactive: 9.9% |
| CN1CCN(Cc2ccc(Br)s2)CC1 | inconclusive: 19.9 µM [inhibitor, partial curve] |  |
| O=c1[nH]c2cc3c(cc2cc1CN(CCc1ccccc1)Cc1nnnn1CC1CCCO1)OCO3 (stereo unspecified) | inconclusive: 31.5 µM [inhibitor, single point] |  |
| COc1cc2c(cc1OC)C(=O)C(CC1CCN(Cc3ccccc3)CC1)C2 (stereo unspecified) |  | inactive: -1.29% |
| COc1ccccc1N/C=C1/Sc2cc(Cl)ccc2NC1=O |  | inactive: 1.41% |
| COc1ccc2c([N+](=O)[O-])c(Cl)[nH]c2c1 | inconclusive: 6.29 µM [inhibitor, partial curve] |  |
| N#C/C(=C\Nc1ccc2c(c1)OCCO2)c1nc(-c2ccccc2)cs1 |  | inactive: 5.39% |
| COc1ccc(OCc2cc(C(=O)N3CCCC3)no2)c2ccccc12 | inconclusive: 12.6 µM [inhibitor, partial curve] |  |
| CC1CCN(CC(O)COc2ccc(-c3ccccc3)cc2)CC1 (stereo unspecified) | inconclusive: 14.1 µM [inhibitor, partial curve, poor fit] |  |
| CSCC[C@H](NC(=O)OC(C)(C)C)c1nnc(SCC=C(C)C)o1 | inconclusive: 31.6 µM [inhibitor, single point] |  |
| CCCCCCOc1ccc(/C(C)=N/NC2=NCCN2)cc1 | inconclusive: 31.6 µM [inhibitor, partial curve] |  |
| O=C(O)c1ccc(NC(=S)NCc2ccccc2)cc1 | inconclusive: 44.7 µM [inhibitor, partial curve, poor fit] |  |
| O=C(NC1CCN(S(=O)(=O)c2ccc(F)cc2)CC1)c1ccc(F)cc1 |  | inactive: 5.22% |
| CC(=O)C(C(c1ccccc1)c1c[nH]c2ccccc12)[N+](=O)[O-] (stereo unspecified) |  | inactive: 14.7% |
| Cc1ccc(N2C(SCC(=O)O)=NC(=Nc3cccc(C)c3)C23CCCC3)cc1 | inconclusive: 15.8 µM [inhibitor, single point] |  |
| CN1CCc2c(sc3c2C(=O)NC(c2cccs2)N3)C1 (stereo unspecified) | inconclusive: 31.6 µM [inhibitor, partial curve] |  |
| CC(=O)OC1=C(C#N)Cn2ccc3cccc1c32 | inconclusive: 39.8 µM [inhibitor, single point] |  |
| O=C(CCc1nnc2n(Cc3ccc(Cl)cc3)c(=O)c3ccccc3n12)NCCN1CCCC1 |  | inactive: -18.2% |
| COC(=O)c1ccc(Nc2ncnc3c2cnn3-c2cccc(C)c2)cc1 |  | inactive: 2.87% |
| CCOC(=O)c1c(NC(=O)C2CCCCC2)sc2c1CCN(CC)C2 | inconclusive: 39.8 µM [inhibitor, single point] |  |
| O=C(Nc1ccc(NC(=O)C2CC2)nc1)c1ccco1 |  | inactive: 1.79% |

| Compound | Potency | activity, negative = inhibition |
| --- | --- | --- |
| CCN1CCc2c(C#N)c(NCc3ccccc3)nc(NCCO)c2C1 | active: 5.61 µM |  |
| O=S(=O)(NCC1CC1)c1cc(Cl)cc(Cl)c1 |  | inactive: -0.237% |
| O=c1oc2c(CN3CCOCC3)c(O)c(Cl)cc2c2c1CCCC2 | inconclusive: 35.5 µM [inhibitor, single point] |  |
| Fc1ccccc1-n1cn[nH]c1=S | inconclusive: 8.89 µM [inhibitor, partial curve] |  |
| O=C1C(Cl)=C(N2CCN(c3ccccc3[N+](=O)[O-])CC2)C(=O)c2ccccc21 | inconclusive: 2.23 µM [inhibitor, full curve] |  |
| CN1CCc2c(sc3c2C(=O)NC(c2ccc(-c4cccc(Cl)c4)o2)N3)C1 (stereo unspecified) | inconclusive: 17.7 µM [inhibitor, partial curve] |  |
| Cc1cc(C=C2C(=O)c3ccccc3C2=O)c(C)n1-c1cccc(C(=O)O)c1 | inconclusive: 17.7 µM [inhibitor, partial curve] |  |
| NS(=O)(=O)c1cccc2c1c([N+](=O)[O-])cc1nc(O)c(O)nc12 | inconclusive: 25.1 µM [inhibitor, partial curve] |  |
| COc1ccc(/C=C/C(=O)O)cc1COc1ccccc1C | inconclusive: 17.7 µM [activator, partial curve] |  |
| CCOC(=O)CNC(=O)CSc1ncnc2c1cnn2-c1ccccc1 |  | inactive: -0.0578% |
| Cc1nnc(N/N=C\c2ccc(-c3ccccc3[N+](=O)[O-])o2)n1N | active: 1.77 µM |  |
| CC(=O)Oc1ccc2c(=O)c(/C=N/c3cc(=O)[nH]c(=S)[nH]3)coc2c1 | inconclusive: 15.8 µM [inhibitor, single point] |  |
| O=S(=O)(c1cccc(Cl)c1Cl)N1CCN(C(=S)NCCCN2CCOCC2)CC1 | inconclusive: 17.7 µM [inhibitor, partial curve] |  |
| CCC(C)(C)n1nnnc1C(c1cc2cc(C)ccc2[nH]c1=O)N1CCCC1 (stereo unspecified) |  | inactive: -19.8% |
| CSCC[C@H](N)C(=O)N1CCC(C(=O)N[C@@H](C)C(=O)NCc2ccc(F)cc2)CC1 | inconclusive: 11.2 µM [inhibitor, partial curve] |  |
| CCOc1ccc(NC(=O)c2cc(S(=O)(=O)N3CCCCC3)c[nH]2)cc1 |  | inactive: 2.21% |
| CN1C(C(=O)Nc2ccccn2)=C(O)c2sccc2S1(=O)=O | inconclusive: 14.1 µM [inhibitor, partial curve] and inconclusive: 15.8 µM [inhibitor, partial curve] |  |
| O=C(N/N=C/C=C\c1ccccc1)c1cnccn1 |  | inactive: -5.36% |
| CN(Cc1c(O)ccc2c1oc(=O)c1ccccc12)C1CCCCC1 | inconclusive: 12.6 µM [inhibitor, partial curve] |  |
| COc1ccc(-c2[nH]ncc2N=Nc2cc(C)cc(C)c2)cc1 |  | inactive: -7.53% |
| Cc1cc(C)n2nc(-c3ccc(F)cc3)nc2n1 |  | inactive: -1.75% |
| O=C1CC(Cc2ccccc2)C(=O)N1CCCn1ccnc1 (stereo unspecified) | inconclusive: 15.8 µM [inhibitor, partial curve] |  |
| COc1ccc(/C=C2/Sc3ccc(C(=O)NCCN4CCCCCC4)cc3NC2=O)cc1 |  | inactive: -8.46% |
